# PubChem BioAssay AID1240 (Sanford-Burnham Center for Chemical Genomics, 2008)
# The campaign covered roughly 50,000 compounds. About 800 (1.6%) showed an effect of 50% or more. This is one part of the list.
# Target: Bcl-2-like protein 10 (Homo sapiens) (UniProt Q9HD36)
# Experiment: Phenotype converters, Bcl-B/TR3 peptide binding displacement, primary biochemical FP (AID 1240);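 note: 0% = Bcl-B with tracer peptide and DMSO and 100% = tracer peptide lacking Bcl-B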
# Settings: GST-Bcl-B / FITC-TR3 peptide fluorescence polarization; stronger effect = higher value; compound at 3.75 mg/L
# UniProt Q9HD36, sequence (Q9HD36 whole entry, looked up): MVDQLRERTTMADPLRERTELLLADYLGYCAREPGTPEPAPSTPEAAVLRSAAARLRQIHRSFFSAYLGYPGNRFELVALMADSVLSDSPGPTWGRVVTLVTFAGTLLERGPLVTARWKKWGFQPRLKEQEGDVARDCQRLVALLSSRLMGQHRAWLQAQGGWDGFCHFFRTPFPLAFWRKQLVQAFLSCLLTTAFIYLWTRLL
row,Structure (SMILES),displacement [%]
1,COc1ccc(CCNC(=O)c2cc3ccccc3oc2=O)cc1,-7.8
2,CCC1CCCCN1CCCCOc1cccc(Cl)c1 (stereo not given),-5
3,COc1ccc(NC(=O)C2C3CCC4C(CCC32)C4(Cl)Cl)cc1 (stereo not given),-7.1
4,COc1ccc(S(=O)(=O)n2cnc3cc(C)c(C)cc32)cc1,-5.6
5,CN1/C(=C\C(=O)Nc2ccccc2Br)c2ccccc2CC1(C)C,9.8
6,COC(=O)c1c(C)oc2cc(Br)c(OCc3ccccc3)cc12,8.3
7,O=C(NN1C(=O)S/C(=C\c2ccc(Cl)cc2Cl)C1=S)c1ccccc1O,-0.2
8,Cc1ccc(O)c(NC(=O)c2cnn3c(C(F)(F)F)cc(-c4ccco4)nc23)c1,12.1
9,CCOc1ccc(C(=O)Nc2ccccc2C(=O)OC)cc1Br,0.9
10,COc1cccc(/C=C2/C(=O)NC(=O)N(c3ccc(C(C)C)cc3)C2=O)c1O,-15.1
11,C(=N\n1cnnc1)/c1ccc(-c2cccc3ccccc23)o1,-9
12,Cc1ccc(NC(=O)O/N=C\c2ccc(F)cc2)cc1,-7.2
13,CCN(CC)c1ccc(/C=c2\sc3n(c2=O)C(c2ccc(OC)cc2OC)C(C(C)=O)=C(C)N=3)c(OC)c1 (stereo not given),-52.5
14,COc1ccc(Nc2nc(C(F)(F)F)nc(C)c2C#N)cc1,-4.2
15,COc1cc(NC(=O)C2CCCC2)c(OC)cc1Cl,-11.6
16,Cc1ccc(OCC(=O)Nc2ccc(C(N)=O)cc2)c(Br)c1,15.1
17,CCCCN(CCCC)C(=O)CSc1nc2ccccc2[nH]1,12.2
18,COc1cc(C(=O)O)c(-n2c(C)ccc2C)cc1OC,74.7
19,Cc1oc(C(C)(C)C)cc1C(=O)Nc1ccc(CC(=O)O)cc1,-3.8
20,Cn1c(CC(O)c2ccccc2)nc2ccccc21 (stereo not given),12.6
21,Cc1c(NC(=O)c2nn3c(c2Br)NC(c2ccccc2)CC3C(F)(F)F)c(=O)n(-c2ccccc2)n1C (stereo not given),9.6
22,COC(=O)c1c(C)oc2ccc(OC(=O)c3ccc(Cl)cc3)cc12,12.7
23,COc1ccc2oc(=O)c(C(=O)O)cc2c1,12.3
24,Cc1ccc(OCC(=O)NCc2ccc3c(c2)OCO3)c(C)c1,-2.3
25,Cc1cccc(OCC(=O)Nc2ccc(Cl)c(C(F)(F)F)c2)c1,12.3
26,O=C1OC2C=CC(Br)=CC2=CC1C(=O)N1CCSC1c1ccccc1Cl (stereo not given),11.6
27,O=C(CN(c1cccc([N+](=O)[O-])c1)S(=O)(=O)c1ccccc1)NCCSc1ccc(Cl)cc1,11.6
28,C#CCC(CC#C)(C(=O)OC)C(=O)OC,15.4

row,Structure (SMILES),displacement [%]
1,N#CCOc1ccccc1/C=C1/Sc2ccccc2C1=O,6.6
2,C(=N\Nc1nnc2c(n1)[nH]c1ccccc12)/c1c[nH]c2ccccc12,12.9
3,COc1ccc(-c2cc(C(=O)Nc3c(Cl)cccc3Cl)c3ccccc3n2)cc1,2.5
4,COc1c(Cl)cc(Cl)cc1/C=c1/sc2nc3ccccc3n2c1=O,23.1
5,CCCCNc1ccc2c3c(cc(=O)n2C)-c2ccccc2C(=O)c13,129
6,N#Cc1c(N)nc2c(c1-c1ccc(F)cc1)CCCC2,-0.5
7,O=C(/C=C/c1ccc([N+](=O)[O-])cc1)N1CCc2ccccc2C1,0.4
8,COc1cc(/C=C2\C(=O)ON=C2c2ccccc2)cc(OC)c1OC,0.1
9,COc1cccc(NC(=O)c2c(-c3ccccc3Cl)noc2C)c1,-2.9
10,COc1cc(/C=C2\C(=O)NC(=O)N(c3cc(C)cc(C)c3)C2=O)cc([N+](=O)[O-])c1O,10
11,CCOc1ccc(C(=O)Nc2ccc(-c3nc4ccc(C)cc4s3)cc2)cc1,13.3
12,COc1ccc(NC(=O)c2cc(Br)ccc2I)cc1Cl,11.8
13,CCc1ccc(-c2c(C)sc(N)c2C(=O)OC)cc1,7.1
14,COc1cc(C2/C(=C(\O)c3ccccc3)C(=O)C(=O)N2c2cccc(Cl)c2)ccc1O (stereo not given),2.7
15,Cc1cc(NC(=O)c2ccc(-c3cc(Cl)ccc3Cl)o2)ccc1NC(=O)c1ccco1,-27.8
16,CC1(C)Cc2c(sc3[nH]c(=S)[nH]c(=S)c23)CO1,-18.6
17,O=C(Cc1ccccc1)NC(CCC(=O)OCc1ccccc1)C(=O)NCCO (stereo not given),-6.1
18,CC(C)c1ccc(C(=O)Nc2ccc(Cl)cn2)cc1,16.8
19,CCOc1ccc(N2C(=O)c3ccccc3NC2c2cccc([N+](=O)[O-])c2)cc1 (stereo not given),-1
20,COc1ccccc1NC(=O)C(=O)N=Nc1c(O)n(CC(=O)Nc2ccccc2)c2ccccc12,1.1
21,CN1C(=O)C(=Cc2ccc(N3CCOCC3)cc2)C(=O)N(C)C1=O,8.9
22,CCCCc1nnc(NC(=O)CCc2ccccc2)s1,5.7
23,Cc1cc(C)cc(N2C(=O)NC(=O)/C(=C\c3ccc(F)cc3)C2=O)c1,7.7
24,O=C(N/C(=C/c1cccc([N+](=O)[O-])c1)C(=O)N1CCCC1)c1ccccc1,-1.6
25,COc1cccc(NC(=O)C(=O)N/N=C/c2cc(OC)ccc2OC)c1,18.4
26,COC(=O)C1=CNC=C(C(=O)OC)C1c1cccc(C)c1,2.4
27,O=C(N=Nc1c(O)n(CN2CCOCC2)c2ccccc12)c1ccncc1,-14.3
